Test results reported in PubChem BioAssay AID588453 (National Center for Advancing Translational Sciences (NCATS), 2011).
Among all 390,000 compounds or so, about 4,000 (1%) were called active. The inconclusive results got no clear call from the source; some entries with a clear call stand among them for comparison. Calls come from the whole dose curve; as a rule, active = well fitted inhibition curve with a large enough effect; inconclusive = small, poorly fitted or top-dose-only effect; inactive = no such curve, though single readings can be large or run the other way. A potency beside an inconclusive call is a rough fit, not a confirmed value.
% is set by controls: 0 for no effect and ±100 for the full control effect; potency is the fitted concentration of half-maximal effect; tags give direction and shape of the fitted curve.
Note: nearly all actives have a fitted effect of over 65% in size.

The compounds below were run against Thioredoxin reductase 1, cytoplasmic (Rattus norvegicus) (UniProt O89049) (assay: qHTS Assay for Inhibitors of Mammalian Selenoprotein Thioredoxin Reductase 1 (TrxR1): qHTS). Conditions: recombinant rTrxR1, NADPH fluorescence consumption, selenite substrate; series mostly up to 114 µM; activity change, negative = inhibition: at the top concentration.
Chain of UniProt O89049 (O89049 whole entry, looked up): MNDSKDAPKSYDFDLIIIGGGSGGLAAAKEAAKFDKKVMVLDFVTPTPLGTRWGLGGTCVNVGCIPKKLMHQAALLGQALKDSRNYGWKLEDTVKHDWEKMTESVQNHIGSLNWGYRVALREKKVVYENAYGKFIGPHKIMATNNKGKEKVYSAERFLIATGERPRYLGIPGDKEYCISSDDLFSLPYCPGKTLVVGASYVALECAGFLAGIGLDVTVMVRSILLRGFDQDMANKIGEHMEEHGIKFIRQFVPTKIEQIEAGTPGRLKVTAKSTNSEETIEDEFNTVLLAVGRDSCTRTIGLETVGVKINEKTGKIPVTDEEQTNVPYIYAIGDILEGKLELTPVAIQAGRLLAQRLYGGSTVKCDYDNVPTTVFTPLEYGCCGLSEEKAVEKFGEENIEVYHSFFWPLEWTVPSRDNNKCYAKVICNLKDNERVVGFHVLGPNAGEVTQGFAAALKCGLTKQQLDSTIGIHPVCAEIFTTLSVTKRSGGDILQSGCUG
Summary of the method: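 Rat TrxR1 (90 nM in the dispensed reagent) was pre-reduced with 400 uM NADPH for 5 min at room temperature, then incubated with compound for 15 min. After 400 uM selenite was added, NADPH fluorescence (Ex 340/Em 450 nm) was followed for 8 min.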
For `CCOc1ccc(S(=O)(=O)Nc2cc3c(C(=O)OCc4ccccc4)c(C)oc3c3ccccc23)cc1`, the Potency was inconclusive: 89.1 µM [inhibitor, single point]. With `CCOc1ccc(NC(=O)c2nn(C)c3c2COc2ccccc2-3)cc1` the Potency was inconclusive: 56.2 µM [inhibitor, partial curve, poor fit]. `CCCOC(=O)c1c(-c2ccccc2)c(-c2ccccc2)nn(C)c1=O` was tested, and the Potency was inconclusive: 79.4 µM [inhibitor, partial curve, poor fit]. For `CCc1sc(C(=O)N2CCc3ccccc32)cc1C`, the “activity change, negative = inhibition” value was inactive: 24%. With `C=CCN(CC=C)S(=O)(=O)c1ccc(NC(=S)NC(=O)C2CC2)cc1` the Potency was inconclusive: 89.1 µM [inhibitor, single point]. `CN(C)CCCNC(=O)/C(=C\C=C\c1ccccc1)NC(=O)c1ccc([N+](=O)[O-])cc1` was tested, and the Potency was inconclusive: 79.4 µM [inhibitor, partial curve, poor fit]. With `O=[N+]([O-])c1cc([N+](=O)[O-])c2cc3ccccc3nc2c1` the Potency was active: 44.7 µM. In the case of `Cc1ccc(NC(=O)N2CCC(NC(=O)c3cccc(C)c3)CC2)cc1`, the Potency is reported as inconclusive: 50.1 µM [inhibitor, partial curve]. `CCN(CC)CCN1C(=O)C(=O)/C(=C(/O)c2c(C)[nH]c(C(=O)OC)c2C)C1c1ccco1` (stereo not drawn) was tested, and the Potency was inconclusive: 20 µM [inhibitor, partial curve, poor fit]. In the case of `Cc1ccccc1N=C1c2cc([N+](=O)[O-])ccc2-c2ncccc21`, the “activity change, negative = inhibition” value is reported as inactive: -13.3%. `CCOc1ncccc1C(=O)OCC(=O)N1CCc2ccccc21` was tested, and the Potency was inconclusive: 79.4 µM [inhibitor, single point]. For `C[C@H](CO)N1C[C@H](C)[C@@H](CN(C)C(=O)Nc2ccc3c(c2)OCO3)Oc2ccc(NS(=O)(=O)c3ccccc3)cc2C1=O`, the Potency was inconclusive: 50.1 µM [inhibitor, partial curve]. With `COc1ccc(C2C=C(Nc3ccccc3)C(=O)N2c2ccccc2)cc1OC` (stereo not drawn) the Potency was inconclusive: 39.8 µM [inhibitor, partial curve, poor fit]. In the case of `COc1cc(/C=C(/C#N)c2ccccc2F)ccc1OCc1ccccc1`, the Potency is reported as inconclusive: 2.82 µM [inhibitor, single point]. `O=C(/C=C/c1ccc2c(c1)OCCO2)c1ccccc1` was tested, and the Potency was inconclusive: 20 µM [inhibitor, partial curve, poor fit]. For `COc1ccc2cc(CN(CCc3ccccc3)Cc3nnnn3CC3CCCO3)c(=O)[nH]c2c1` (stereo not drawn), the Potency was inconclusive: 28.2 µM [inhibitor, partial curve]. For `Cn1c(=O)cc(OCCCC(=O)NCc2ccco2)c2ccccc21`, the Potency was inconclusive: 10 µM [inhibitor, full curve, poor fit]. With `COC(=O)c1ccc(CSc2nc3ccccc3c(=O)n2C)o1` the Potency was inconclusive: 44.7 µM [inhibitor, partial curve, poor fit]. For `CCSc1n[nH]c(=S)s1`, the Potency was inconclusive: 11.2 µM [inhibitor, partial curve, poor fit]. `O=c1cc(N2CCN(c3ccc(F)cc3)CC2)[nH]c(=O)n1Cc1ccc(F)cc1` was tested, and the Potency was inconclusive: 25.1 µM [inhibitor, single point]. In the case of `O=C(Nc1ccc(Cl)cc1Cl)c1cccc(N2C(=O)C=CC2=O)c1`, the Potency is reported as active: 2 µM. In the case of `Cc1ccccc1N1C(=O)CC(Sc2nnc(-c3ccccc3)o2)C1=O` (stereo not drawn), the Potency is reported as inconclusive: 22.4 µM [inhibitor, single point]. `CC(=O)Cc1nsc(Nc2ccccc2)n1` was tested, and the Potency was inconclusive: 3.55 µM [inhibitor, partial curve, poor fit]. With `COc1ccc(OC)c(N=c2ssnc2Cl)c1` the “activity change, negative = inhibition” value was inactive: -22.2% [at 57.1 µM]. With `COC(=O)C1=C(C)N(c2cccc(Cl)c2)C(=O)C1` the Potency was inconclusive: 20 µM [inhibitor, partial curve, poor fit]. In the case of `O=C1C2ON(c3ccccc3)C(c3ccccc3F)C2C(=O)N1c1ccccc1` (stereo not drawn), the “activity change, negative = inhibition” value is reported as inactive: -1.03% [at 57.1 µM]. In the case of `Cc1sc(NC(=O)c2ccccc2F)c(CN2CCCCC2)c1C`, the Potency is reported as inconclusive: 79.4 µM [inhibitor, single point]. In the case of `C=C(C)C(=O)OC1(C(F)(F)F)Oc2cc(C)ccc2NC1=O` (stereo not drawn), the Potency is reported as inconclusive: 20 µM [inhibitor, single point]. `COc1nccnc1NS(=O)(=O)c1ccc(NC(=S)NC(=O)c2cccc(F)c2)cc1` was tested, and the Potency was inconclusive: 50.1 µM [inhibitor, partial curve]. In the case of `O=C(Nc1ccc2nccnc2c1)Nc1ccccc1Cl`, the “activity change, negative = inhibition” value is reported as inactive: 2.46%. In the case of `COc1ccccc1NC(=O)C(=O)/C=C(\O)c1ccccc1`, the Potency is reported as inconclusive: 28.2 µM [inhibitor, partial curve, poor fit]. In the case of `O=S(=O)(Nc1cccc(C(F)(F)F)c1)c1cnc[nH]1`, the activity change, negative = inhibition is reported as inactive: 3.06% [at 11.4 µM]. `COC(=O)C1=C(C)N(c2ccc(F)cc2)C(=O)C1` was tested, and the Potency was inconclusive: 79.4 µM [inhibitor, partial curve]. `COc1cccc(-c2nc(-c3ccc(NC(=O)c4cccs4)cc3)no2)c1` was tested, and the “activity change, negative = inhibition” value was inactive: 18.9%. In the case of `CNC(=O)c1c(NC(=O)c2cc(=O)c3ccccc3o2)sc2c1CCC2`, the “activity change, negative = inhibition” value is reported as inactive: 10.3% [at 57.1 µM]. `O=C(c1cccc(Cl)c1Cl)N(Cc1ccco1)Cc1cccs1` was tested, and the Potency was active: 12.6 µM. In the case of `O=[N+]([O-])c1cc(CN2CCOCC2)c2cccnc2c1O`, the “activity change, negative = inhibition” value is reported as inactive: -6.07% [at 57.1 µM]. With `COc1ccc(NC(=S)Nc2cccc(C(F)(F)F)c2)c(C)c1` the Potency was inconclusive: 28.2 µM [inhibitor, single point]. In the case of `O=C(c1ccco1)N(Cc1cccs1)c1ccc(O)cc1`, the Potency is reported as inconclusive: 79.4 µM [inhibitor, single point]. In the case of `CC(C)c1ccc(NC(=O)CCS(=O)(=O)c2ccc(Br)s2)cc1`, the “activity change, negative = inhibition” value is reported as inactive: -21%. In the case of `COc1ccc(O)c(C(=O)CC(=O)c2ccc(F)cc2)c1`, the Potency is reported as inconclusive: 79.4 µM [inhibitor, single point]. With `Cc1ccc(/C=c2/sc3nnc(-c4ccccc4Cl)n3c2=O)o1` the Potency was inconclusive: 0.316 µM [inhibitor, full curve, poor fit]. `COc1ccc(C(=O)/C=C/c2cn(CC(O)CN(CC(C)C)CC(C)C)c3ccccc23)cc1OC` (stereo not drawn) was tested, and the Potency was inconclusive: 17.8 µM [inhibitor, full curve, poor fit].
